PMC7363125
These are yes or no findings as the source states them, for the method shown. In cells and extracts the contact can be indirect. Some results given as binding are weak or reduced against the parent protein; the word gives no strength. Tags and fused reporters may be left off the sequences shown.

Experiments:
Assay in all cases: pull-down; 5 ug GST-PLEKHA7 WW bait (E. coli) coupled to GSH-Sepharose beads, washed, incubated 1 h at 4 °C with normalized HEK cell lysate holding PDZD11-HA or CFP-HA; immunoblot with anti-HA; only the target purified
[1] = target: T1, GST-PLEKHA7 (human) WW1 domain (residues 1-56), WT (human) (UniProt Q6IQ23)
T1 sequence: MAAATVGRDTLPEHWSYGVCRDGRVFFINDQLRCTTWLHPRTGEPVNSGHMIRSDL

[2] = target: T2, GST-PLEKHA7 WW1 + WW2 domain (1-162) D30A + D74A (human) (UniProt Q6IQ23)
T2 sequence: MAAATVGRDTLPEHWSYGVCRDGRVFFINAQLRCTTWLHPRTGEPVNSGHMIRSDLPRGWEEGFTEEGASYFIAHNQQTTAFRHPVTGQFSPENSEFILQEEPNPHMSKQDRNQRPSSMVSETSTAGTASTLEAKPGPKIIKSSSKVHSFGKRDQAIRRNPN

[3] = target: T3, GST-PLEKHA7 WW1 + WW2 domain (1-162) R33A + H75A (human) (UniProt Q6IQ23)
T3 sequence: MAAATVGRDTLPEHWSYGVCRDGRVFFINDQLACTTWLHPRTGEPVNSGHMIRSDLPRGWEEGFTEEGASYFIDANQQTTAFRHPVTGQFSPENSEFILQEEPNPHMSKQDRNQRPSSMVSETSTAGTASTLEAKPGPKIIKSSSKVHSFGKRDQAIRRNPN

[4] = target: T4, GST-PLEKHA7 WW1 + WW2 domain (1-162) V19A (human) (UniProt Q6IQ23)
T4 sequence: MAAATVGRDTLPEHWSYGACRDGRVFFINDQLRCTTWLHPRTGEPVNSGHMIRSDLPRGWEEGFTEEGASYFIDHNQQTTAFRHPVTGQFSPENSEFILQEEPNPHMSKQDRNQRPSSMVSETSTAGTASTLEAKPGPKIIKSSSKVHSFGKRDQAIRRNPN

[5] = target: T5, GST-PLEKHA7 WW1 + WW2 domain (1-162), mutation within the WW2 domain at position 65 (human) (UniProt Q6IQ23)
T5 sequence: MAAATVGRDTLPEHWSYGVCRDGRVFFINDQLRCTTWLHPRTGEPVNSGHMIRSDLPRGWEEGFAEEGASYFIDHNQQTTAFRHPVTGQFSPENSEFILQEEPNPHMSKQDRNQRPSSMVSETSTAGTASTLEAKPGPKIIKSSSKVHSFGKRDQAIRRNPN

[6] = target: T6, GST-PLEKHA7 WW1 + WW2 domain (1-162), mutation within the WW2 domain at position 73 (human) (UniProt Q6IQ23)
T6 sequence: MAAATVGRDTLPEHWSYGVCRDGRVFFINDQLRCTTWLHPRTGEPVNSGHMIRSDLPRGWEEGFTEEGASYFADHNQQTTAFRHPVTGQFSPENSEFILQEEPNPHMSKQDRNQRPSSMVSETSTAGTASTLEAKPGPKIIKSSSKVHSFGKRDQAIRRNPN

[7] = target: T7, GST-PLEKHA7 WW1 domain (residues 1-56) D22A (human) (UniProt Q6IQ23)
T7 sequence: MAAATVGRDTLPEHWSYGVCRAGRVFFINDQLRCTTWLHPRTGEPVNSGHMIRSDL

[8] = target: T8, GST-PLEKHA7 WW1 domain (residues 1-56) L32A (human) (UniProt Q6IQ23)
T8 sequence: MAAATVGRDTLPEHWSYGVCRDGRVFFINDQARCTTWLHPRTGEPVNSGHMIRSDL

[9] = target: T9, GST-PLEKHA7 WW1 domain (residues 1-56) N29A (human) (UniProt Q6IQ23)
T9 sequence: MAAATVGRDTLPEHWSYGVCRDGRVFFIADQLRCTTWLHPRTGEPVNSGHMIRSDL

[10] = target: T10, GST-PLEKHA7 WW1 domain (residues 1-56) V19A (human) (UniProt Q6IQ23)
T10 sequence: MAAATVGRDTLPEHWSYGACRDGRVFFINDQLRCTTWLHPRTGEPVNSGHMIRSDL

[11] = target: T11, GST-PLEKHA7 WW1 domain (residues 1-56) W15A (human) (UniProt Q6IQ23)
T11 sequence: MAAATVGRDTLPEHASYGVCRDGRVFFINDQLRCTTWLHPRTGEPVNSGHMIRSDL

B1: PDZD11-HA (human) full-length (protein, UniProt Q5EBL8 1-140)
chain: MDSRIPYDDYPVVFLPAYENPPAWIPPHERVHHPDYNNELTQFLPRTITLKKPPGAQLGFNIRGGKASQLGIFISKVIPDSDAHRAGLQEGDQVLAVNDVDFQDIEHSKAVEILKTAREISMRVRFFPYNYHRQKERTVH
With B1 as the binder, how does the binding [1] read?
Its binding is “binds”.

And the binding [2]?
Its binding is “binds”.

What about the binding [3] of the same binder?
Its binding is “binds”.

What about the binding [4] of the same binder?
Its binding is “binds”.

What about the binding [5] of the same binder?
The binding was “binds”.

What about the binding [6] of the same binder?
Its binding is “binds”.

And the binding [7]?
The binding was “binds”.

And the binding [8]?
Its binding is “binds”.

And the binding [9]?
Its binding is “no binding”.

And the binding [10]?
Its binding is “no binding”.

What about the binding [11] of the same binder?
The binding was “no binding”.
